# Results: the supplement of paper PMC8728848
# The list shows a part of the results.
# B1: PX9961J-bvu-499-24-499 (Bacteroides vulgatus) (protein)
# chain: LNTDPSTAVPSDDAIKNIDDAQVALNGIYRLASAHSYYGDNYLYYADCRGEDVQARINKGAGRRVSPYYFFDVTADDNFNITLVWNQPYKVIHQANSLIEKLDAGNAGNARPEEVARIKSEALAMRGLALFDLTRLFGMPYTLDNGASLGVPIEIQTTLEDHAPERNTVAQCYEQVLKDLNDALGGLTKEKHDAYMNYWSVKALLSRVYLYMNDNENALKCAEEVINDNGGIYRLFTHDEYPSVWGKDFNSESLFEFYFTMSEPSGGSGGEGAPMVYADNVKDWNNLILTKAYLDLLNEDPEDVRHVFPHLPENAVADTLPVAAKGQPKYLIKYPGKSGSVTDAVSTVNPQDNDLCILRLSEVYLNAAEAAFKIGNTEKALTYLNAIVTRANPAKSVTSADLSLERILKERRKELVGEGHAFFDYMRNGKSVDRSGGWHLTMPEDARVIAPSDPRVALPIPQTEIDANPNIVQNPR
# Key:
# Assay in all cases: glycan array binding signal (z-score within array); higher = stronger binding
# Details in all cases: glycan notation: IUPAC condensed, linker removed
# [1] = target: Fuc(a1-3)[Gal3S(b1-4)]GlcNAc6S
# Procedure, shortened: (§1)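 Glycan array data were curated from 3228 arrays in the Consortium for Functional Glycomics database and kept only where the protein sequence was available. Glycan names were converted to IUPAC-condensed notation, and columns mapping to the same glycan were averaged. The binding signal is a within-array Z-score, averaged across arrays of the same protein sequence at different concentrations or buffers and across linkers. Negative Z-scores can be read as non-binding.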
# [2] = target: Fuc(a1-3)[GalNAc(b1-4)]GlcNAc
# Procedure, shortened: as §1
# [3] = target: Fuc(a1-3)[GalNAc(b1-4)]GlcNAc6S
# Procedure, shortened: as §1
# Fuc(a1-4)GlcNAc = target: Fuc(a1-4)GlcNAc
# Procedure, shortened: as §1
# Fuc(b1-3)GlcNAc = target: Fuc(b1-3)GlcNAc
# Procedure, shortened: as §1
# Gal(a1-2)Gal = target: Gal(a1-2)Gal
# Procedure, shortened: as §1
# Gal(a1-3)Gal = target: Gal(a1-3)Gal
# Procedure, shortened: as §1
# Gal(a1-3)Gal(b1-3)GlcNAc = target: Gal(a1-3)Gal(b1-3)GlcNAc
# Procedure, shortened: as §1
# [4] = target: Gal(a1-3)Gal(b1-3)GlcNAc(b1-2)Man
# Procedure, shortened: as §1
# [5] = target: Gal(a1-3)Gal(b1-3)GlcNAc(b1-2)Man(a1-3)[Gal(a1-3)Gal(b1-3)GlcNAc(b1-2)Man(a1-6)]Man(b1-4)GlcNAc(b1-4)GlcNAc
# Procedure, shortened: as §1
# [6] = target: Gal(a1-3)Gal(b1-3)GlcNAc(b1-3)GalNAc
# Procedure, shortened: as §1
# [7] = target: Gal(a1-3)Gal(b1-3)GlcNAc(b1-6)GalNAc
# Procedure, shortened: as §1
# [8] = target: Gal(a1-3)Gal(b1-3)[Fuc(a1-4)]GlcNAc(b1-2)Man(a1-3)[Gal(a1-3)Gal(b1-3)[Fuc(a1-4)]GlcNAc(b1-2)Man(a1-6)]Man(b1-4)GlcNAc(b1-4)GlcNAc
# Procedure, shortened: as §1
# Gal(a1-3)Gal(b1-4)Glc = target: Gal(a1-3)Gal(b1-4)Glc
# Procedure, shortened: as §1
# Gal(a1-3)Gal(b1-4)GlcNAc = target: Gal(a1-3)Gal(b1-4)GlcNAc
# Procedure, shortened: as §1
# [9] = target: Gal(a1-3)Gal(b1-4)GlcNAc(b1-2)Man
# Procedure, shortened: as §1
# [10] = target: Gal(a1-3)Gal(b1-4)GlcNAc(b1-2)Man(a1-3)[Gal(a1-3)Gal(b1-4)GlcNAc(b1-2)Man(a1-6)]Man(b1-4)GlcNAc(b1-4)GlcNAc
# Procedure, shortened: as §1
# [11] = target: Gal(a1-3)Gal(b1-4)GlcNAc(b1-3)GalNAc
# Procedure, shortened: as §1
# [12] = target: Gal(a1-3)Gal(b1-4)GlcNAc(b1-6)GalNAc
# Procedure, shortened: as §1
# [13] = target: Gal(a1-3)Gal(b1-4)[Fuc(a1-3)]GlcNAc
# Procedure, shortened: as §1
# [14] = target: Gal(a1-3)Gal(b1-4)[Fuc(a1-3)]GlcNAc(b1-2)Man(a1-3)[Gal(a1-3)Gal(b1-4)[Fuc(a1-3)]GlcNAc(b1-2)Man(a1-6)]Man(b1-4)GlcNAc(b1-4)GlcNAc
# Procedure, shortened: as §1
# Gal(a1-3)GalNAc = target: Gal(a1-3)GalNAc
# Procedure, shortened: as §1
# [15] = target: Gal(a1-3)[Gal(a1-4)]Gal(b1-4)GlcNAc
# Procedure, shortened: as §1
# [16] = target: Gal(a1-4)Gal(b1-3)GlcNAc(b1-2)Man(a1-3)[Gal(a1-4)Gal(b1-3)GlcNAc(b1-2)Man(a1-6)]Man(b1-4)GlcNAc(b1-4)GlcNAc
# Procedure, shortened: as §1
# Gal(a1-4)Gal(b1-4)Glc = target: Gal(a1-4)Gal(b1-4)Glc
# Procedure, shortened: as §1
# Gal(a1-4)Gal(b1-4)GlcNAc = target: Gal(a1-4)Gal(b1-4)GlcNAc
# Procedure, shortened: as §1
# [17] = target: Gal(a1-4)Gal(b1-4)GlcNAc(b1-2)Man(a1-3)[Gal(a1-4)Gal(b1-4)GlcNAc(b1-2)Man(a1-6)]Man(b1-4)GlcNAc(b1-4)GlcNAc
# Procedure, shortened: as §1
# [18] = target: Gal(a1-4)Gal(b1-4)GlcNAc(b1-3)Gal(b1-4)Glc
# Procedure, shortened: as §1
# Gal(a1-4)GlcNAc = target: Gal(a1-4)GlcNAc
# Procedure, shortened: as §1
# Gal(a1-6)Glc = target: Gal(a1-6)Glc
# Procedure, shortened: as §1
# Gal(b1-2)Gal = target: Gal(b1-2)Gal
# Procedure, shortened: as §1
# Gal(b1-3)Gal = target: Gal(b1-3)Gal
# Procedure, shortened: as §1
# Gal(b1-3)Gal(b1-4)GlcNAc = target: Gal(b1-3)Gal(b1-4)GlcNAc
# Procedure, shortened: as §1
# Gal(b1-3)GalNAc = target: Gal(b1-3)GalNAc
# Procedure, shortened: as §1
# [19] = target: Gal(b1-3)GalNAc(a1-3)[Fuc(a1-2)]Gal(b1-4)Glc
# Procedure, shortened: as §1
# [20] = target: Gal(b1-3)GalNAc(a1-3)[Fuc(a1-2)]Gal(b1-4)GlcNAc
# Procedure, shortened: as §1
# Gal(b1-3)GalNAc(b1-3)Gal = target: Gal(b1-3)GalNAc(b1-3)Gal
# Procedure, shortened: as §1
# [21] = target: Gal(b1-3)GalNAc(b1-3)Gal(a1-4)Gal(b1-4)Glc
# Procedure, shortened: as §1
# [22] = target: Gal(b1-3)GalNAc(b1-4)Gal(b1-4)Glc
# Procedure, shortened: as §1
# [23] = target: Gal(b1-3)GalNAc(b1-4)[Neu5Ac(a2-3)]Gal(b1-4)Glc
# Procedure, shortened: as §1
# Gal(b1-3)GlcNAc = target: Gal(b1-3)GlcNAc
# Procedure, shortened: as §1
# [24] = target: Gal(b1-3)GlcNAc(a1-3)Gal(b1-4)GlcNAc
# Procedure, shortened: as §1
# [25] = target: Gal(b1-3)GlcNAc(a1-6)Gal(b1-4)GlcNAc
# Procedure, shortened: as §1
# Gal(b1-3)GlcNAc(b1-2)Man = target: Gal(b1-3)GlcNAc(b1-2)Man
# Procedure, shortened: as §1
# [26] = target: Gal(b1-3)GlcNAc(b1-2)Man(a1-3)[Gal(b1-3)GlcNAc(b1-2)Man(a1-6)]Man(b1-4)GlcNAc(b1-4)GlcNAc
# Procedure, shortened: as §1
binder,measurement,setting,value
B1,glycan array binding signal (z-score),[1],0.486
same,glycan array binding signal (z-score),[2],0.261
same,glycan array binding signal (z-score),[3],0.049
same,glycan array binding signal (z-score),Fuc(a1-4)GlcNAc,0.155
same,glycan array binding signal (z-score),Fuc(b1-3)GlcNAc,0.396
same,glycan array binding signal (z-score),Gal(a1-2)Gal,-0.036
same,glycan array binding signal (z-score),Gal(a1-3)Gal,-0.096
same,glycan array binding signal (z-score),Gal(a1-3)Gal(b1-3)GlcNAc,-0.556
same,glycan array binding signal (z-score),[4],-0.661
same,glycan array binding signal (z-score),[5],0.434
same,glycan array binding signal (z-score),[6],-0.17
same,glycan array binding signal (z-score),[7],1.19
same,glycan array binding signal (z-score),[8],2.95
same,glycan array binding signal (z-score),Gal(a1-3)Gal(b1-4)Glc,-0.491
same,glycan array binding signal (z-score),Gal(a1-3)Gal(b1-4)GlcNAc,0.539
same,glycan array binding signal (z-score),[9],-0.342
same,glycan array binding signal (z-score),[10],0.825
same,glycan array binding signal (z-score),[11],0.164
same,glycan array binding signal (z-score),[12],0.008
same,glycan array binding signal (z-score),[13],0.904
same,glycan array binding signal (z-score),[14],0.201
same,glycan array binding signal (z-score),Gal(a1-3)GalNAc,-0.16
same,glycan array binding signal (z-score),[15],3.12
same,glycan array binding signal (z-score),[16],-0.024
same,glycan array binding signal (z-score),Gal(a1-4)Gal(b1-4)Glc,-0.223
same,glycan array binding signal (z-score),Gal(a1-4)Gal(b1-4)GlcNAc,-0.357
same,glycan array binding signal (z-score),[17],0.648
same,glycan array binding signal (z-score),[18],0.194
same,glycan array binding signal (z-score),Gal(a1-4)GlcNAc,-0.103
same,glycan array binding signal (z-score),Gal(a1-6)Glc,-0.161
same,glycan array binding signal (z-score),Gal(b1-2)Gal,0.084
same,glycan array binding signal (z-score),Gal(b1-3)Gal,-0.099
same,glycan array binding signal (z-score),Gal(b1-3)Gal(b1-4)GlcNAc,-0.194
same,glycan array binding signal (z-score),Gal(b1-3)GalNAc,0.218
same,glycan array binding signal (z-score),[19],-0.211
same,glycan array binding signal (z-score),[20],-0.492
same,glycan array binding signal (z-score),Gal(b1-3)GalNAc(b1-3)Gal,-0.258
same,glycan array binding signal (z-score),[21],0.285
same,glycan array binding signal (z-score),[22],0.794
same,glycan array binding signal (z-score),[23],-1.14
same,glycan array binding signal (z-score),Gal(b1-3)GlcNAc,0.304
same,glycan array binding signal (z-score),[24],-0.6
same,glycan array binding signal (z-score),[25],-0.184
same,glycan array binding signal (z-score),Gal(b1-3)GlcNAc(b1-2)Man,-0.59
same,glycan array binding signal (z-score),[26],0.114
